The campaign covered roughly 310,000 compounds. About 2,200 (0.71%) showed an effect of 50% or more. Effects have a minus sign here. Some of the results follow.
What follows are compounds tested against human ether-à-go-go-related gene (hERG) potassium channel (human, UniProt Q12809) (assay: primary screen, population patch clamp on CHO cells stably expressing hERG).
Sequence of human ether-à-go-go-related gene (hERG) potassium channel (Q12809 whole entry, looked up): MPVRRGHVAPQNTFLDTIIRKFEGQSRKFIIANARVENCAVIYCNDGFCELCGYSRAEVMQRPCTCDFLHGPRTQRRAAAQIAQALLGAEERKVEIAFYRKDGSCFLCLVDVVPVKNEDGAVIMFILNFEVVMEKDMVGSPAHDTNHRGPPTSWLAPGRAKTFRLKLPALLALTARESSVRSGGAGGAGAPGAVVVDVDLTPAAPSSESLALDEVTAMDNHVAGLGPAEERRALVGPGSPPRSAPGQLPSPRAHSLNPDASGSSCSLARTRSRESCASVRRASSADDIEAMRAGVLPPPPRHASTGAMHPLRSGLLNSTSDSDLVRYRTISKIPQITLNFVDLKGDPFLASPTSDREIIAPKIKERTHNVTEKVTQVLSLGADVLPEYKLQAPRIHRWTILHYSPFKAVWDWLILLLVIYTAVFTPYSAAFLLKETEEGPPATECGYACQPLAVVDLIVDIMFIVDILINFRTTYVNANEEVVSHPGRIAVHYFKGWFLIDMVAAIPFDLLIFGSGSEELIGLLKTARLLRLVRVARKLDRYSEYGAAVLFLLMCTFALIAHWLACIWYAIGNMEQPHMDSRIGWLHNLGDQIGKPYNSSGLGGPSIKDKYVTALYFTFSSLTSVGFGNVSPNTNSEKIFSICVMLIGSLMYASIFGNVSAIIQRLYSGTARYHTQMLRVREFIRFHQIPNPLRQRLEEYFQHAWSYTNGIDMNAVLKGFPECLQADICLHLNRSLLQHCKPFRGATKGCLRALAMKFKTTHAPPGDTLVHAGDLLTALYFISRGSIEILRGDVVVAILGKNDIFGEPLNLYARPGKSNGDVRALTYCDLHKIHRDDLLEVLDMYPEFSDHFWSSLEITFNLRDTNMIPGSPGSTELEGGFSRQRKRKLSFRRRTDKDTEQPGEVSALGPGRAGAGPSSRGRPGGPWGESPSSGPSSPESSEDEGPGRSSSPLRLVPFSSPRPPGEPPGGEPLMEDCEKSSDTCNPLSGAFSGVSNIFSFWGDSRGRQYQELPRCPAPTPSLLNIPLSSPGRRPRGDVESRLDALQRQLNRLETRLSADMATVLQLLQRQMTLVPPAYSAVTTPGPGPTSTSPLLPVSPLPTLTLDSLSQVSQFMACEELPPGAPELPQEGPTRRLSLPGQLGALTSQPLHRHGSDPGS
For `N#Cc1ccsc1NC(=O)CSc1nnnn1-c1ccc(O)cc1`, the “hERG current change (%, negative = inhibition) at 1uM” value was 1.79%.
`ON(Cc1c(F)cccc1Cl)Cc1c(F)cccc1Cl` was tested, and the “hERG current change (%, negative = inhibition) at 1uM” value was 1.01%.
For `COc1cc(/C=C2/CCCC(C(=O)C(F)(F)F)=C2O)ccc1O`, the “hERG current change (%, negative = inhibition) at 1uM” value was 12.6%.
In the case of `O=C(Cn1nc(C(F)(F)F)c2c1CCCC2)N1CCOCC1`, the “hERG current change (%, negative = inhibition) at 1uM” value is reported as 11.4%.
With `CC(Cc1ccccc1)NC(N)=O` (stereo not drawn) the “hERG current change (%, negative = inhibition) at 1uM” value was 8.44%.
`Cc1cc(C)c2c(N)c(C(=O)Nc3cccc(C)c3C)sc2n1` was tested, and the “hERG current change (%, negative = inhibition) at 1uM” value was 6.81%.
In the case of `Cc1cc(Nc2ccc(Cl)cc2)n2nnnc2n1`, the “hERG current change (%, negative = inhibition) at 1uM” value is reported as 14.3%.
For `COc1ccc(-c2ccc([C@H]3[C@H]4C=CC[C@@H](C)[C@@H]4C(=O)N3Cc3ccccc3)c(F)c2)cc1OC`, the “hERG current change (%, negative = inhibition) at 1uM” value was 6.25%.
In the case of `CCCCN1CC2([N+](=O)[O-])C=CC(=O)C([N+](=O)[O-])(C1)C2CC(=O)c1ccccc1` (stereo not drawn), the “hERG current change (%, negative = inhibition) at 1uM” value is reported as 11.6%.
With `CCCCn1c(CCCNC(=O)c2ccco2)nc2ccccc21` the “hERG current change (%, negative = inhibition) at 1uM” value was -11.9%.
For `CC(=O)c1cc(C#N)c(N2CCCCC2)nc1C`, the “hERG current change (%, negative = inhibition) at 1uM” value was 10.5%.
With `CCN(CC)C(=O)c1sc2nc(-c3ccccn3)[nH]c(=O)c2c1C` the “hERG current change (%, negative = inhibition) at 1uM” value was 4.24%.
`COc1ccccc1/C(C)=N/NC(=O)c1nnn(-c2nonc2N)c1C(C)C` was tested, and the “hERG current change (%, negative = inhibition) at 1uM” value was 4.91%.
For `Cc1ccc2[nH]c(CCN(C)C)c(CN3CCOCC3)c2c1`, the “hERG current change (%, negative = inhibition) at 1uM” value was 7.39%.
For `CCC(C)(C)NC(=O)CN(C(=O)CNS(=O)(=O)c1ccc(C)cc1)c1ccc2c(c1)OCCO2`, the “hERG current change (%, negative = inhibition) at 1uM” value was 5.36%.
With `CCC(=NCCN1CCOCC1)c1c(O)n(C2CCCCC2)c(=O)[nH]c1=O` the “hERG current change (%, negative = inhibition) at 1uM” value was 5.55%.
For `Cn1cnc(C(F)(F)F)c1-c1ccc([N+](=O)[O-])cc1`, the “hERG current change (%, negative = inhibition) at 1uM” value was 0.329%.
For `Cn1c(CN2CCN(S(C)(=O)=O)CC2)nc2cc([N+](=O)[O-])ccc21`, the “hERG current change (%, negative = inhibition) at 1uM” value was 11.7%.
For `COC(=O)c1ccccc1S(=O)(=O)N(CCCO)Cc1cc2c(C)ccc(C)c2[nH]c1=O`, the “hERG current change (%, negative = inhibition) at 1uM” value was -14.8%.
For `CC(C)c1ccc(S(=O)(=O)N2CCN(CC(=O)Nc3ccc(Cl)cc3F)CC2)cc1`, the “hERG current change (%, negative = inhibition) at 1uM” value was 1.23%.
`COc1cccc(CN2CCN(Cc3[nH]c4ccccc4c3C)CC2CCO)c1` (stereo not drawn) was tested, and the “hERG current change (%, negative = inhibition) at 1uM” value was -11.2%.
For `COc1ccccc1N1CCN(CCCNC(=O)Cn2ncc3c([nH]c4ccccc43)c2=O)CC1`, the “hERG current change (%, negative = inhibition) at 1uM” value was -31%.
`CC(C)CN(C(=O)COC(=O)c1ccccc1SCC(=O)NC1CCCCCC1)C1CCS(=O)(=O)C1` (stereo not drawn) was tested, and the “hERG current change (%, negative = inhibition) at 1uM” value was 10.6%.
With `Cc1ccc(-n2nc3c(=O)n(CCCC(=O)NCCN4CCN(C)CC4)nc(C)c3c2C)cc1` the “hERG current change (%, negative = inhibition) at 1uM” value was 9.39%.
With `Cc1ccc(C)c(NC(=O)CSc2ccc(-c3cccs3)nn2)c1` the “hERG current change (%, negative = inhibition) at 1uM” value was 11.3%.
In the case of `Cc1cccc(S(=O)(=O)NCCC(=O)OC(C)C(=O)NC(=O)NC2CCCCC2)c1` (stereo not drawn), the “hERG current change (%, negative = inhibition) at 1uM” value is reported as -9.22%.
`Cc1ccc(C(=O)Nc2ccc(S(=O)(=O)N3CCCC3)cc2)s1` was tested, and the “hERG current change (%, negative = inhibition) at 1uM” value was 6.14%.
With `C/C=C/C=N/Nc1nc(-c2ccc([N+](=O)[O-])cc2)cs1` the “hERG current change (%, negative = inhibition) at 1uM” value was 2.13%.
With `Cc1cccc(CN2C(=O)N/C(=C/c3cc(C)n(-c4ccccn4)c3C)C2=O)c1` the “hERG current change (%, negative = inhibition) at 1uM” value was 11.7%.
For `O=C(NC(=O)c1ccc(F)cc1)Nc1nc(-c2cccs2)cc(C(F)(F)F)n1`, the “hERG current change (%, negative = inhibition) at 1uM” value was 8.86%.
In the case of `COc1ccc(NC(=O)C(=O)NNC(=O)c2ccc(Cl)cc2Cl)cc1`, the “hERG current change (%, negative = inhibition) at 1uM” value is reported as 3.93%.
In the case of `Cc1ccnc(NC(=O)c2cccc(S(=O)(=O)N3CCCc4ccccc43)c2)c1`, the “hERG current change (%, negative = inhibition) at 1uM” value is reported as 6.79%.
In the case of `CCCOc1ccccc1-n1sc2c(c1=S)-c1cc(OC)cc3c1N(C(=O)C3=O)C2(C)C`, the “hERG current change (%, negative = inhibition) at 1uM” value is reported as -0.0471%.
With `CCOc1ccccc1C(=O)N[C@H](C(=O)NCc1ccccc1)C(C)C` the “hERG current change (%, negative = inhibition) at 1uM” value was 0.928%.
For `CC(=O)c1c(C)[nH]c(C(=O)CSc2nnc(C3CCCCC3)n2N)c1C`, the “hERG current change (%, negative = inhibition) at 1uM” value was 23.4%.
`c1coc(-c2cc(C3CCNCC3)[nH]n2)c1` was tested, and the “hERG current change (%, negative = inhibition) at 1uM” value was 8.25%.
`C/C(=N\NC(=O)OC(C)(C)C)c1cccc([N+](=O)[O-])c1` was tested, and the “hERG current change (%, negative = inhibition) at 1uM” value was 2.89%.
With `CN(c1ccccc1)S(=O)(=O)c1cc(Cl)ccc1Cl` the “hERG current change (%, negative = inhibition) at 1uM” value was 4.85%.
In the case of `COC(=O)CNC(=O)c1ccc(C)s1`, the “hERG current change (%, negative = inhibition) at 1uM” value is reported as -1.09%.
With `CC(NC(=O)COC(=O)c1ccc(N(C)C)cc1)c1ccccc1` (stereo not drawn) the “hERG current change (%, negative = inhibition) at 1uM” value was 12.2%.
With `COc1ccc(OC)c(-c2nnc(NC(=O)C(C)Sc3nncn3C)s2)c1` (stereo not drawn) the “hERG current change (%, negative = inhibition) at 1uM” value was 3.32%.
In the case of `COCCc1nnc(NC(=O)Cc2ccccc2)s1`, the “hERG current change (%, negative = inhibition) at 1uM” value is reported as 6.37%.
`Oc1ccc(C2=NN(c3ccccc3)C(c3ccc(F)cc3)C2)cc1` (stereo not drawn) was tested, and the “hERG current change (%, negative = inhibition) at 1uM” value was 8.16%.
`Cc1cc2cc(CNC(=O)c3ccc4c(c3)OCO4)ccc2n1C` was tested, and the “hERG current change (%, negative = inhibition) at 1uM” value was 13.6%.
For `COc1ccc(NC(=O)C2=CC(c3ccc(OC)c(OC)c3)=NS(=O)(=O)N2C)cc1`, the “hERG current change (%, negative = inhibition) at 1uM” value was 7.46%.
With `O=C1CC(N2CCC(O)CC2)C(=O)N1c1ccc(Br)cc1` (stereo not drawn) the “hERG current change (%, negative = inhibition) at 1uM” value was -2%.
`CC(=O)c1sc(Nc2nc3ccc(F)cc3s2)nc1C` was tested, and the “hERG current change (%, negative = inhibition) at 1uM” value was 11.5%.
`NCC(=O)N1CCC(C(=O)N[C@@H](Cc2c[nH]c3ccccc23)C(=O)O)CC1` was tested, and the “hERG current change (%, negative = inhibition) at 1uM” value was 17.7%.
`CCOc1ccc2nc(NC(=O)CSc3cn[nH]n3)sc2c1` was tested, and the “hERG current change (%, negative = inhibition) at 1uM” value was 11.7%.
`O=C(CCCN1C(=O)c2cccnc2C1=O)N1CC(=O)N(CCc2ccccc2)C(=O)C1` was tested, and the “hERG current change (%, negative = inhibition) at 1uM” value was 6.24%.
With `CN/C(=C/[N+](=O)[O-])NCCSCc1csc(CN(C)C)n1` the “hERG current change (%, negative = inhibition) at 1uM” value was 12%.
In the case of `O=C(Cc1cccs1)N1CCN=C1SCc1ccccc1F`, the “hERG current change (%, negative = inhibition) at 1uM” value is reported as -0.585%.
With `Cc1ccccc1C(=O)Oc1ccc(-c2csnn2)cc1` the “hERG current change (%, negative = inhibition) at 1uM” value was 18%.
In the case of `O=C(NCC1CCCN(Cc2nccs2)C1)c1cccc2ccccc12` (stereo not drawn), the “hERG current change (%, negative = inhibition) at 1uM” value is reported as 8.65%.
In the case of `COC(=O)c1cc(S(=O)(=O)N(C)c2ccc(C)c(C)c2)c[nH]1`, the “hERG current change (%, negative = inhibition) at 1uM” value is reported as 6.8%.
In the case of `CNC(=O)C(Sc1ccccc1)c1ccccc1` (stereo not drawn), the “hERG current change (%, negative = inhibition) at 1uM” value is reported as 9.27%.
`Cc1cc(N2CCCCCC2)n2nc(C)c(-c3ccccc3)c2n1` was tested, and the “hERG current change (%, negative = inhibition) at 1uM” value was 15.6%.
